The campaign covered roughly 230,000 compounds. Fewer than 10 were called active. The inconclusive results got no clear call from the source; some entries with a clear call stand among them for comparison. Calls follow the shape of the dose curve; as a rule, active = well fitted curve in the direction sought with a large enough effect; inconclusive = small, poorly fitted or top-dose-only effect, or effect the other way, or another doubt; inactive = no such curve, though single readings can be large or run the other way. Potencies of inconclusive entries are left out as doubtful fits.
Each compound was assayed against Runt-related transcription factor 1 (Homo sapiens) + Core-binding factor subunit beta (Homo sapiens) (UniProt Q01196+Q13951) (assay: qHTS Assay for Compounds Blocking the Interaction Between CBF-beta and RUNX1 for the Treatment of Acute Myeloid Leukemia). Details: AlphaScreen CBFb-His/RUNX1-biotin binding, biochemical; series mostly up to 59.8 µM.
Excerpt: NIH Chemical Genomics Center [NCGC]
NIH Molecular Libraries Probe Production centers Network [MLPCN]
Assay Submitter (PI): Paul Liu
Core Binding Factor (CBF) abnormalities are associated with 20-25% of all acute myeloid leukemias (AML), of which 5-10% are further sub classified as acute myelomonocytic leukemia with eosinophilia, also known as M4Eo in the FAB classification scheme. This subtype of leukemia is usually associated with chromosome 16 inversion (p13:q22). Chromosome 16 inversion results in formation of the fusion oncogene CBFB-MYH11, which encodes the fusion protein CBF-beta-SMMHC.
It has been hypothesized that the interference of CBF-beta and RUNX1 binding could have therapeutic implications for patients with CBF mediated leukemias. We developed a CBF-beta and RUNX1 binding assay in AlphaScreenTM format and optimized it for high throughput screening to search for inhibitors. The goal of this project is to screen MLPCN's compound collection (MLSMR) for identifying the inhibitors of the interaction between CBF-beta and RUNX1 proteins as research probes. If these probes work well in the animal models, the ultimate goal of this project is to development a new drug treatment for this disease.
This assay can not be used to assess how apparent inhibitors interfere with protein binding, and whether inhibitors specifically bind to either protein. Disruption of this protein-protein interaction, through any mechanism, is the intended target activity.
NCGC Assay Protocol Summary:
Step, Parameter, Description
(1) Reagent, 3 uL CBFb-His/RUNX1-biotin mix incubated together for 20 minutes at room temperature (30 nM each)
(2) Compound or control, 23 nL compound stock solution
(3) Incubation, 15 minutes at Room temperature
(4) Reagent, 1 uL 50 ng each of beads (Nickel beads and streptavidin beads)
(5) Incubation, 90 minutes at Room temperature
(6) Detection, Excitation=365 nm Emission=440 nm, Envision reader in AlphaScreenTM mode
Keywords: MLSMR, MLPCN, NIH Roadmap, qHTS, NCGC, Core binding factor, CBF, CBF-beta, Acute myeloid leukemia

UniProt Q01196, sequence (Q01196 whole entry, looked up): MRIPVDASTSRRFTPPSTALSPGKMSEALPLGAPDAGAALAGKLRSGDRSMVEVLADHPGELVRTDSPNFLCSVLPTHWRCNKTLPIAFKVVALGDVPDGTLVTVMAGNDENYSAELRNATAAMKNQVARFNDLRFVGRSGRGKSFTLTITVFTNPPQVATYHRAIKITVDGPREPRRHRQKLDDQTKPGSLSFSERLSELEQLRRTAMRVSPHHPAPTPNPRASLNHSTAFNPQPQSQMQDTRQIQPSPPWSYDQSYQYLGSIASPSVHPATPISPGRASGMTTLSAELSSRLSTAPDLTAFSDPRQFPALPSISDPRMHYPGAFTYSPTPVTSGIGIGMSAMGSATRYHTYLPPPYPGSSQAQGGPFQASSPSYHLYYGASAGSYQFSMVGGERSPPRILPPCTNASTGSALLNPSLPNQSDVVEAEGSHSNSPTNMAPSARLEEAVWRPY
UniProt Q01196, sequence (Q13951 whole entry, looked up): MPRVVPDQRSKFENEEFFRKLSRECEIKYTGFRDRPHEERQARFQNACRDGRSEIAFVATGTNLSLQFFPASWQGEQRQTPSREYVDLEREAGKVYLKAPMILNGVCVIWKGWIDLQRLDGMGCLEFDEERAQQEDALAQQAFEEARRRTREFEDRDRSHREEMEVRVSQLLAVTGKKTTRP

Compound	Potency
COC(=O)COc1c(Cl)cc(Cl)c2ccc(C)nc12	inconclusive [activator, partial curve]
Cc1ccc(Sc2c(C#N)c(-c3ccccc3)nn2C)cc1	inconclusive [activator, single point]
O=C(CN1CCOCC1)NNC(=S)Nc1ccccc1	inconclusive [inhibitor, single point]
Cc1cc(C(=O)CSc2nnc(-c3ccccc3F)o2)c(C)n1Cc1cccs1	inconclusive [inhibitor, single point]
CC(C)CN(CC(C)C)S(=O)(=O)N1CCC(C(=O)NC2CCCCCCC2)CC1	inactive
CCc1sc(/C=C(/C#N)C(N)=S)cc1[N+](=O)[O-]	inconclusive [inhibitor, single point]
O=C(NNC1=Nc2cccc3cccc1c23)c1ccc(Br)cc1	inactive
COc1ccc2nc(SCc3ccccc3)nc(C)c2c1	inconclusive [activator, single point]
O=C(CSc1nc2cc(S(=O)(=O)N3CCOCC3)ccc2o1)NC1CCCc2ccccc21 (centres undefined)	inactive
Cc1ccc(S(=O)(=O)Nc2ccc(N(C)C)cc2)cc1	inconclusive [inhibitor, single point]
CCCCC(CC)CN=C(N)NC(N)=NCCCCCCN=C(N)NC(N)=NCC(CC)CCCC (centres undefined)	inconclusive [activator, partial curve]
c1ccc(C2CC(c3cccs3)=NN2c2ccccc2)cc1 (centres undefined)	inconclusive [activator, partial curve]
COC(=O)CCC(=O)OC1(C)C(=O)C=C2C=C(C3CC3)N(CCc3c[nH]c4ccccc34)C=C2C1=O (centres undefined)	inconclusive [inhibitor, single point]
S=c1[nH]c2ccccc2c2ccccc12	inconclusive [inhibitor, single point]
Cc1ccccc1N=C1NC(=O)/C(=C/c2cccn2-c2cccc(C(=O)O)c2)S1	inconclusive [inhibitor, partial curve]
Cc1ccc(NC(=O)COC(=O)C2(c3ccc(Cl)cc3)CCCC2)cc1	inconclusive [activator, single point]
O=C(CSc1ccc2nnc(CCNS(=O)(=O)c3ccccc3)n2n1)Nc1nc2ccccc2s1	inactive
C/C(=N/NC(=O)Cc1cccn1C)c1ccccc1	inconclusive [inhibitor, single point]
COC/C=C/C1=CC2=CC(=O)C(C)(OC(=O)c3cnc4ccccc4n3)C(=O)C2=CN1Cc1ccc2c(c1)OCO2 (centres undefined)	inconclusive [inhibitor, single point]
Cc1cccc(CSc2ccc3nnc(-c4ccccn4)n3n2)c1	inconclusive [activator, partial curve, poor fit]
COc1ccc2[nH]c(C(=O)O)c(CCC(=O)O)c2c1	inactive
Cc1ccc(/C=N/NC(=O)NC2CCCCC2)o1	inactive

Compound	Potency
CNc1cc([N+](=O)[O-])ccc1OCc1ccccc1	inactive
CCCCCSc1cc(O)c(C(CNC)C(C)C)cc1OC (centres undefined)	inconclusive [inhibitor, single point]
CC(C)C(C(=O)O)N1C(=O)/C(=C/C=C/c2ccco2)SC1=S (centres undefined)	inconclusive [inhibitor, single point]
O=C(c1ccccn1)N1CC=C(c2ccccc2)CC1	inconclusive [inhibitor, single point]
CC(C)COc1ccc(CNC(=S)N/N=C/c2ccc([N+](=O)[O-])cc2)cc1	inactive
COCCn1c(N)c(C(=O)NCc2cccs2)c2nc3ccccc3nc21	inconclusive [activator, partial curve]
CN(CCOC(=O)/C=C/c1ccco1)Cc1ccccc1	inconclusive [inhibitor, partial curve]
CCOc1ccc(N=C2SC(C(=O)Nc3ccccc3C#N)C(N)=C2C(=O)Nc2ccc(Cl)cc2)cc1 (centres undefined)	inconclusive [inhibitor, single point]
CC#C[C@]1(O)CC[C@H]2[C@@H]3CCC4=CC(=O)CCC4=C3[C@@H](c3ccc(N(C)C)cc3)C[C@@]21C	inconclusive [inhibitor, partial curve]
CN(C)c1ccc(NC(=O)CN2CCN(S(=O)(=O)c3cc(Cl)ccc3Cl)CC2)cc1	inconclusive [inhibitor, single point]
O=C1C=C2C=CC3C[C@@]2(O1)C1CCCCN31 (some centres undefined)	inactive
COCCn1c(CNc2ccc(F)cc2)nnc1SCC(=O)Nc1ccc(OC)cc1OC	inactive
CCOC(=O)NC1(Nc2ccc(Cl)cn2)Oc2ccccc2O1	inconclusive [inhibitor, partial curve]
COc1cccc(N2CCN(c3ncnc4c3[nH]c3ccc(F)cc34)CC2C)c1 (centres undefined)	inconclusive [inhibitor, single point]
COc1cc(N=c2c([N+](=O)[O-])nn(-c3ccc4c(c3)OCCO4)n2O)cc(OC)c1	inconclusive [inhibitor, single point]
CCOC(=O)c1cnc(-n2nc(C)cc2C)nc1Nc1ccc(N(C)C)cc1	inconclusive [inhibitor, full curve, poor fit]
CCCn1c(SCC(=O)Nc2cc(S(=O)(=O)N3CCOCC3)ccc2OC)n[nH]c1=O	inactive
Cc1ccc(-c2csc(NC(=O)c3ccc4c(=O)n5c(nc4c3)CCCCC5)n2)cc1	inactive
CCOc1ncccc1C(=O)N1CCN(C(=O)c2ccccc2)CC1	inconclusive [inhibitor, single point]
CCOC(=O)C1=C(C)Nc2sc(C(=O)c3ccc(C)cc3)c(N)c2C1c1ccc(C(=O)OC)cc1 (centres undefined)	inactive
Cn1cccc1/C=C1\C(=O)NC(=O)N(Cc2ccco2)C1=O	inconclusive [inhibitor, single point]
CCOC(=O)C/C(C)=N\Nc1nc(-c2ccccc2)cs1	inconclusive [inhibitor, single point]
